Read counts are not given, so values of variants with three or more changes are uncertain.
B1: LINE1-mini (parent)
chain: GGCAGAGCUCAACACAGCGUGGCAAAGUGGCUGUGGCUAGACUGCC

Variants of: B1
Assay: self-cleavage, relative activity (ratio to wild type); higher = more cleavage; in vitro, sequencing; the parent is a self-cleaving ribozyme
A6C G7U G19U G22A showed a self-cleavage of 0.07. For A6C C15U A25C A26U A39G, the self-cleavage was 0.08. With A6C C18U G33A U34G A41U U43A the self-cleavage was 0.05. A6G A39G G40A gave a self-cleavage of 0.01. Variant A6G C10A U20C U43C G44A has a self-cleavage of 0.01. With A6C C13U C42U the self-cleavage was 0.21. A6G A12U A16U C23A G30C C31U G33U A41U showed a self-cleavage of 0.12. Work on A6C C10A G36C U38C yielded a self-cleavage of 0.02. A6C U9G U34A G44C showed a self-cleavage of 0.03. Work on A6C C13U G17U yielded a self-cleavage of 0.17. Variant A6C G21A C37G C46U has a self-cleavage of 0.03. A6G A25G U38C gave a self-cleavage of 0.02. For A6C C23U G35U U43C, the self-cleavage was 0.06. With A6C C13U G27C C31A the self-cleavage was 0.02. For A6C G21U G29U, the self-cleavage was 0.76. Variant A6G A16G U28A U43A C45U has a self-cleavage of 0.11. Variant A6C G30C U43C has a self-cleavage of 0.11. For A6G A14G G22U, the self-cleavage was 0.07. Variant A6G A11G U32G A41C has a self-cleavage of 0. A6C C10A A25C showed a self-cleavage of 0.02. For A6G A16G G17A G33A, the self-cleavage was 0. A6G A12C C15U A16U G17C showed a self-cleavage of 0.03. For A6C G29A G30U A39C A41G, the self-cleavage was 2.11. A6G A12U U20G G27U C45U showed a self-cleavage of 0.01. With A6C G22A C23G G27U C37G the self-cleavage was 0. Work on A6C G22A G40A yielded a self-cleavage of 0.33. A6G C10G G21A showed a self-cleavage of 0.01. A6G A11U A39G C46A showed a self-cleavage of 0.01. In the case of A6C C8U U20A G27U U34G, the self-cleavage is reported as 0.11. Work on A6G A16C G36C C45U yielded a self-cleavage of 0.03. With A6C G21U C23A the self-cleavage was 0.45. A6C C23A C45U gave a self-cleavage of 0.38. With A6C C15A A25U G36C the self-cleavage was 0. In the case of A6C C8U C13U, the self-cleavage is reported as 0.63. Variant A6C U9A C31G has a self-cleavage of 0.01. Variant A6C U20A A39U G44A C45G has a self-cleavage of 0.11. A6G A11C G17U A25C U38C C42U gave a self-cleavage of 0.01. In the case of A6C C8U C10U C15A G17C A39U, the self-cleavage is reported as 0.02. In the case of A6G C10A C18G, the self-cleavage is reported as 0.03. A6C C10G A11G G27A gave a self-cleavage of 0.02. A6C C8U A14G showed a self-cleavage of 0.04. Work on A6C C31A G33C U34G yielded a self-cleavage of 0.03. For A6G A14G G44C, the self-cleavage was 0.02. In the case of A6C C10A C13A G33U, the self-cleavage is reported as 0.01. In the case of A6C G17C G22A U28G G29U G33C, the self-cleavage is reported as 0.64. A6C G7A G29C C31U C45A C46A gave a self-cleavage of 0.02. For A6C U9G C15A C18G, the self-cleavage was 0.12. Work on A6G A12C G36A C37U yielded a self-cleavage of 0.15. A6C U28C A39G showed a self-cleavage of 0.04. In the case of A6C C13A A14U C46G, the self-cleavage is reported as 0.05. A6C G21U U28G C37A showed a self-cleavage of 0.03. A6C G17U U20A G27C C37A U38G gave a self-cleavage of 0.01. A6G A16C C23G G35U gave a self-cleavage of 0.01. With A6G A24U A25G the self-cleavage was 0.05. In the case of A6C G35A C37G, the self-cleavage is reported as 0.07. A6C C13G U20A G22A G27U C31A gave a self-cleavage of 0.07. For A6C U9G G17C C46U, the self-cleavage was 0.12. Work on A6G A14C A41G yielded a self-cleavage of 0.03. Variant A6C C10A G22C has a self-cleavage of 0. For A6C C15U G35U, the self-cleavage was 0.01. A6C G7A C8G G19A showed a self-cleavage of 0.03. Variant A6C C42G C45G has a self-cleavage of 0.01. Variant A6C G21U A41U has a self-cleavage of 0.09. Variant A6G A11C C15A G22U A25G G40C has a self-cleavage of 0.01. For A6G A11C A16C C45A, the self-cleavage was 0.01. In the case of A6G A24C G36U, the self-cleavage is reported as 0.09. In the case of A6G A16U U43C, the self-cleavage is reported as 0.01. For A6G A26C G44U C45U, the self-cleavage was 0.01. Work on A6C C13G U38A A41G yielded a self-cleavage of 0.12. In the case of A6G A26C U38A, the self-cleavage is reported as 0.03. In the case of A6C C10U U32A, the self-cleavage is reported as 0. Work on A6C G7A G29A yielded a self-cleavage of 0.03. Variant A6C C31G G40C U43G has a self-cleavage of 0.02. A6C C8U C31U C42U gave a self-cleavage of 0.21. A6C C10U A11G showed a self-cleavage of 0.05. Work on A6C C15G G35U G36A yielded a self-cleavage of 0.02. Variant A6C C13G C15U G44U has a self-cleavage of 0.01. With A6C U9G U20A A26G the self-cleavage was 0.01. In the case of A6G A11C U28A, the self-cleavage is reported as 0.01. In the case of A6C G7U A14C G27U, the self-cleavage is reported as 0.01. With A6C C23U A25G G35A G44A the self-cleavage was 0.05. A6C C13U C31U U32A gave a self-cleavage of 0.01. A6G C8U U9C A11U G44A gave a self-cleavage of 0.01. With A6G A14C U32C G35A U38A the self-cleavage was 0. A6C G7A A12C showed a self-cleavage of 0.02. In the case of A6C G36A U43A, the self-cleavage is reported as 0.11. With A6G C10G G21C G30U C42U the self-cleavage was 0.01. With A6C G40A C42A the self-cleavage was 0.02. Variant A6G A12C U20C has a self-cleavage of 0. Variant A6G C10U A39G C46U has a self-cleavage of 0. Variant A6C C13U G17A G44A has a self-cleavage of 0.04. With A6G A24G G33U G40U the self-cleavage was 0.01. A6C G40U C42A showed a self-cleavage of 0.04. Work on A6C G22U A26U C42A yielded a self-cleavage of 0.04. A6C G7A G17U G44C showed a self-cleavage of 0.04. A6C C18A G19A G33A A39C G44U showed a self-cleavage of 0.02. A6C G7C A24G gave a self-cleavage of 0.06. Variant A6G A14C A24C has a self-cleavage of 0. A6C G17A G30A U32G G33A gave a self-cleavage of 0. Work on A6G C8A A11C G29A G40C yielded a self-cleavage of 0.01. For A6C G7U G19A U38G, the self-cleavage was 0.03. In the case of A6C U20A U38C, the self-cleavage is reported as 0.14. In the case of A6G A14C C18U, the self-cleavage is reported as 0.09. For A6C G7U U43C, the self-cleavage was 0.88. Variant A6C C13U G19U U38G has a self-cleavage of 0. With A6G C10A C23U A26U U32C the self-cleavage was 0.01. Variant A6C G7C C31G has a self-cleavage of 0.17. A6C G22U C45U gave a self-cleavage of 0.65. For A6C U9A G29C G36A C37A A39U, the self-cleavage was 0.04. With A6G A25U G44U the self-cleavage was 0.13. In the case of A6C C13G A24C G33A G44U, the self-cleavage is reported as 0.05. With A6C U32C G40C G44C the self-cleavage was 0.01. A6C C13G U32A gave a self-cleavage of 0.28. A6G C10G C13G G27A G29C showed a self-cleavage of 0.02. A6C C15G C23U G29U G35A showed a self-cleavage of 0.07. Variant A6G C10U U20G A26G U32A C45U has a self-cleavage of 0.03. A6G A14C C37U gave a self-cleavage of 0.05. Work on A6G C8U A11C U20C G21U U38C yielded a self-cleavage of 0. A6C U9G A16C gave a self-cleavage of 0.01. Variant A6G A14G A26G has a self-cleavage of 0.02. For A6G A14U G30U, the self-cleavage was 0.09. For A6C U9C G36A C37U, the self-cleavage was 0.05. In the case of A6C U9G C13G G40A, the self-cleavage is reported as 0.11. For A6C C13G G35A A41U, the self-cleavage was 0.04. In the case of A6G C8U C10A C23G C45G, the self-cleavage is reported as 0.02. In the case of A6C C10A A11G A12G G30C C37A, the self-cleavage is reported as 0. A6C C10A A16C U28C C37U gave a self-cleavage of 0.01. With A6C U20G C31A the self-cleavage was 0.05. With A6C G17U G22U U32G G35A A39C the self-cleavage was 0.05. Variant A6C C15A G27C has a self-cleavage of 0.03. For A6G C8U U9A C37U, the self-cleavage was 0.06. A6C C10A G19A G21C showed a self-cleavage of 0.16. With A6G C8A A12G A14G A26C the self-cleavage was 0.03. Work on A6G A25G A41C G44A yielded a self-cleavage of 0.02. Variant A6C G40A G44U has a self-cleavage of 0.04. For A6C U9C U34A U43C, the self-cleavage was 0.03. A6G A12C G29C C31A G36C gave a self-cleavage of 0. With A6C G7A A11G A26G the self-cleavage was 0.01. Variant A6C U28G U34C has a self-cleavage of 0.02. With A6G C10A A12G C23U G29U the self-cleavage was 0.01. With A6C U9G C13A A24U U28C C42G G44A C46A the self-cleavage was 0.01. In the case of A6G A12U C18A C23U, the self-cleavage is reported as 0.08. Work on A6G A11U A24G C31A U34G C37U U38A C46U yielded a self-cleavage of 0. Work on A6G A14G G17C A24U G33A C37U yielded a self-cleavage of 0. A6G A12C A41U showed a self-cleavage of 0.01. With A6C G27C U38G U43A the self-cleavage was 0. With A6G A11C C13A the self-cleavage was 0.01. Variant A6G A12U G36C has a self-cleavage of 1.52. Variant A6G C10U A16C has a self-cleavage of 0. For A6G A11C U20A, the self-cleavage was 0.03. Work on A6G A12U C46G yielded a self-cleavage of 0.13. In the case of A6G C13A C15G A24C G33U C37U, the self-cleavage is reported as 0.01. In the case of A6G C8U U20C G36C, the self-cleavage is reported as 0. Work on A6C G7C G17U U28G C31G yielded a self-cleavage of 0.01. Work on A6C U20G C23U G30C G36U yielded a self-cleavage of 0.05. In the case of A6G C8G G17U A24G, the self-cleavage is reported as 0.01. Work on A6G A16U A25C U34G yielded a self-cleavage of 0. Work on A6G A11G C15U G35C G44A yielded a self-cleavage of 0.05. In the case of A6C G7A C8G G29U, the self-cleavage is reported as 0.07. A6C C8U G22C G29C U43G C46U gave a self-cleavage of 0. With A6G A14G A24C G33U the self-cleavage was 0. In the case of A6G C8U G22U A41G C42G, the self-cleavage is reported as 0.16. Variant A6C G21U A24U A41C has a self-cleavage of 0.07. A6C G21A G27A C45G showed a self-cleavage of 0.07. For A6G C10U C18A G21U G35A U43A, the self-cleavage was 0.02. A6C C10U G30U C37A C42G showed a self-cleavage of 0.01. For A6C C13G A14U, the self-cleavage was 0.26.

Reference: the RNAGym collection of RNA variant scans (doi:10.7554/elife.90254)
